In paper PMC4336329 (PLoS ONE, 2015):
In all, about 310,000 compounds went through this assay and about 2,200 (0.71%) showed an effect of 50% or more. The effect is printed as a negative number. The list shows a part of the results.

biological target: human ether-à-go-go-related gene (hERG) potassium channel (human, UniProt Q12809); experiment: primary screen, population patch clamp on CHO cells stably expressing hERG
Sequence (Q12809 whole entry, looked up): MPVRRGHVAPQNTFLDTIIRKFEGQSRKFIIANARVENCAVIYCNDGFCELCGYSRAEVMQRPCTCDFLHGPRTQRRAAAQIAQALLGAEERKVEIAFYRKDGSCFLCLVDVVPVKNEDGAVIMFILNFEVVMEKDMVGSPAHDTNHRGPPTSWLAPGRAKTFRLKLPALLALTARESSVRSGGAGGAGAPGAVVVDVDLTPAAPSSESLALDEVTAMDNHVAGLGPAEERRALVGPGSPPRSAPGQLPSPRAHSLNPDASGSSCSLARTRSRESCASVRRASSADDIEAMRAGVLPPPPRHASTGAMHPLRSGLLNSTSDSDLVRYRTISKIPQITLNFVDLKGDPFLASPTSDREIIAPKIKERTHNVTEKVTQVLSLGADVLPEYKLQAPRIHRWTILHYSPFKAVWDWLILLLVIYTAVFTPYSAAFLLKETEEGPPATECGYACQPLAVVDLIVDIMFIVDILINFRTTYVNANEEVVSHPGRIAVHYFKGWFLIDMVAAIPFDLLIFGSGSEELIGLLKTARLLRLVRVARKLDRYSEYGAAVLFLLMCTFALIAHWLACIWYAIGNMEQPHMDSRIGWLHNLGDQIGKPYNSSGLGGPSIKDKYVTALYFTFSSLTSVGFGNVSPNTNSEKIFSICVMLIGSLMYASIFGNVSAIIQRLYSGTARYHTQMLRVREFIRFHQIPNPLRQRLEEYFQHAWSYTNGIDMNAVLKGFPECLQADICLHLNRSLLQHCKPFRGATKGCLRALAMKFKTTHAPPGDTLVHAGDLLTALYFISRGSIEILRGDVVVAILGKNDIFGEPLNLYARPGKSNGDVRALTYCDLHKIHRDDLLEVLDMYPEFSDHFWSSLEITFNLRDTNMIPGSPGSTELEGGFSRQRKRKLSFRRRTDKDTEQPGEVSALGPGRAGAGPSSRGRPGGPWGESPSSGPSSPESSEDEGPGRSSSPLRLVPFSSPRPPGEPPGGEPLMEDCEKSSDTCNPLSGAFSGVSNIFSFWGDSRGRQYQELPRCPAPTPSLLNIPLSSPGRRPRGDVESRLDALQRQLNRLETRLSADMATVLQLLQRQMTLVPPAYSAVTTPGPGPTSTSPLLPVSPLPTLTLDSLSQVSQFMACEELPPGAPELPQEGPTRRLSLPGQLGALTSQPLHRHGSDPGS

Point of comparison: `CCC(NC(=O)c1cc(COc2c(F)cccc2F)on1)c1ccncc1` (stereo not shown), “hERG current change (%, negative = inhibition) at 1uM” value 10.7%. Against it:
- CCCn1c(=O)c(C(=O)NCC2CCCO2)c(O)c2ccccc21 (stereo not shown) — lower, 2.17%
- O=C(N/C(=C\c1ccc2c(c1)OCO2)C(=O)N1CCOCC1)c1ccccc1Br — lower, 9.23%
- COC(=O)c1c(-n2cnnn2)sc(C)c1C — higher, 12.7%
- Cc1cc(C)c(OCCOCCN2CCN(C)CC2)c(Cl)c1.O=C(O)C(=O)O — lower, 9.6%
- CN1N=C(c2ccc(F)c(F)c2)CSC1=NCc1ccccc1 — higher, 16.4%
- NC(=O)C1CCN(c2ncccc2[N+](=O)[O-])CC1 — lower, 10.3%
- O=C(Nc1cc(Cl)ccc1C(=O)O)c1ccc(CN2C(=O)c3ccccc3C2=O)cc1 — higher, 20.8%
- CC(NC(=O)COC(=O)[C@@H]1CCCN1S(=O)(=O)c1ccccc1F)C12CC3CC(CC(C3)C1)C2 (stereo partly shown) — higher, 14.5%
- CCCCCCCCOC(=O)/C=C/c1c(C)[nH]c(=O)[nH]c1=O — lower, 3.4%
- CN(C)N=Nc1ccc(S(=O)(=O)N2CCSC2C(=O)O)cc1 (stereo not shown) — lower, 4.16%
- S=c1[nH]nc(-c2ccc3ccccc3n2)o1 — higher, 13.3%
- O=C(NCCn1cccn1)c1ccc(OC2CCN(C(=O)C3CC3)CC2)cc1 — higher, 12%
- O=C(O)/C=C/c1cn(-c2ncc(C(F)(F)F)cc2Cl)c2ccccc12 — higher, 11.6%
- COc1ccc(NC(=O)COC(=O)C2CCN(S(=O)(=O)c3cccs3)CC2)cc1 — lower, -0.894%
- Cn1c(=O)oc2cc(S(=O)(=O)NC3CCN(Cc4ccccc4)CC3)ccc21 — lower, -4.35%
- COc1cc(/C=N\NC(=O)OC(C)(C)C)ccc1OC(=O)c1ccco1 — higher, 22.6%
- N#CCc1ccc(OC(=O)c2cccnc2)cc1 — lower, 9.04%
- COc1ccc(C(=O)NC2CCC(O)CC2)cc1S(=O)(=O)NCc1ccc(Cl)cc1 (stereo not shown) — lower, -0.258%
- COc1ccc(N2CCOCC2)c(NC(=O)c2cccnc2)c1 — higher, 12.1%
- O=C(COC(=O)c1cccc(S(=O)(=O)N2CCOCC2)c1)Nc1ccc2c(c1)OCO2 — lower, 6.57%
- COC(=O)C(CSCc1ccccc1)NC(=O)CSc1nc(C)cc(=O)[nH]1 (stereo not shown) — higher, 17.4%
- COc1ccc([N+](=O)[O-])cc1NC(=O)CSc1nccc(C)n1 — higher, 12.3%
- COc1cccc(-c2nnc(NC(=O)Cc3cccs3)s2)c1 — higher, 13.5%
- CC1C=CCC2C(=O)N(c3cccc(C(=O)Nc4ccc(Br)cc4)c3)C(=O)C12 (stereo not shown) — lower, 4.39%
- COc1ccccc1NS(=O)(=O)c1ccc(C)c(C(=O)NC2=NCCS2)c1 — lower, 3.58%
- CN(CC(=O)NC1CCCc2ccccc21)C1CCCCC1 (stereo not shown) — higher, 10.9%
- COc1ccc(-c2nn3cnnc3s2)cc1OC — lower, 5.46%
- Cc1ccc2cc(C(c3nnnn3CC3CCCO3)N3CCc4ccccc4C3)c(=O)[nH]c2c1 (stereo not shown) — lower, -5.09%
- O=C(NCc1ccc2c(c1)OCO2)C(=S)N1CCOCC1 — lower, 7.54%
- COCCn1c(SCC(=O)N2CCC(C)CC2)nc2c(c1=O)SCC2 — lower, -5.83%
- COCCN(C(=O)c1cc(-c2ccncc2)nc2ccccc12)c1c(N)n(CC(C)C)c(=O)[nH]c1=O — lower, 9.54%
- COc1ccc(/C=C/C(=O)Nc2ccc(C34CC5CC(CC(O)(C5)C3)C4)cc2)cc1OC — higher, 12.6%
- CCOC(=O)CSc1nc2ccsc2c(=O)[nH]1 — lower, 0.16%
- O=C1C=C(Nc2ccc(O)cc2)C(=O)c2ccccc21 — higher, 12.8%
- CC1(C)CC(=O)C(C2=NC3(CCCCCC3)Cc3ccccc32)=C(O)C1 — lower, 2.77%
- Cc1c(NC(=O)C(C)Oc2ncnc3ccccc23)c(=O)n(-c2ccccc2)n1C (stereo not shown) — lower, 3.53%
- Cc1ccc(C(=O)Cn2ncsc2=N)cc1 — lower, -0.998%
- O=C(COC(=O)/C=C/c1ccccc1)Nc1nnc(-c2ccccc2)o1 — lower, 9.69%
- COc1ccc([C@H]2CC(=O)C=C(c3ccc(-c4ccccc4)c(F)c3)C2)cc1OC — higher, 17.4%
- O=C(Nc1ccc(Cn2nnc3ccccc32)cc1)c1ccco1 — lower, 9.6%
- O=C1CCC(C(=O)NCc2cccnc2)N1 (stereo not shown) — higher, 17.5%
- COc1ccc(Cl)cc1N(CC(=O)NC(C)(C)C)S(=O)(=O)c1ccc(C)c([N+](=O)[O-])c1 — lower, 6.65%
- Cc1cccc(OCC(=O)Nc2nnn(C)n2)c1C — higher, 14.3%
- CC(=O)c1sc(N/N=C\c2ccc(C)cc2)nc1C — higher, 15%
- Nn1c(SCc2cc([N+](=O)[O-])cc3c2OCOC3)nnc1-c1ccccn1 — lower, 3.76%
- CC(C)(C)C(=O)Nc1nnc(SCC(=O)NCc2cccs2)s1 — higher, 12.4%
- CS(=O)(=O)N1CCN(c2ncccn2)CC1 — lower, 7.77%
- Oc1ccc2ccccc2c1N=Nc1ccc(F)cc1 — higher, 14.2%
- Cc1cccc(NC(=O)N2CCCc3ccccc32)c1C — higher, 12.4%
- N#C/C(=C\c1ccc(Sc2ccc(Cl)cc2)o1)c1nc2ccccc2[nH]1 — lower, 3.08%
- CCSc1nc2c(cnn2-c2ccccc2)c(=O)n1N — higher, 10.8%
- CCOC(=O)c1c(NC(=O)c2ccc(Br)o2)sc(C)c1CC — lower, 1.58%
- CCN1CCN(Cc2nc3c(c(=O)[nH]c(=O)n3C)n2Cc2ccccc2Cl)CC1 — lower, 10.5%
- CCCNC(=O)C(CC)NC(=O)c1ccc(C#N)cc1 (stereo not shown) — higher, 15.5%
- CCOC(=O)C1CCN(C(=O)CCC2CCCC2)CC1 — higher, 17.5%
- O=C(COC(=O)c1ccco1)Nc1ccc(Br)cc1 — higher, 15.3%
- O=C(CCN1C(=O)C2CC=C(Cl)CC2C1=O)Nc1ccccc1O (stereo not shown) — lower, 9.28%
